The source of these data is PubChem BioAssay AID1851 (National Center for Advancing Translational Sciences (NCATS), 2009).

Only a part is listed here, and it is no random draw. Records with an inconclusive call do not appear. Calls of active or inactive are those of the source. The call rests on the fitted dose curve; in most records, active means well fitted curve in the direction sought with a large enough effect; inconclusive means small, poorly fitted or top-dose-only effect, or effect the other way; inactive means no such curve, though single readings can be large or run the other way.
On the % scale 0 is the no-effect control and ±100 the full control effect.

Chain of UniProt P33261 (P33261 whole entry, looked up): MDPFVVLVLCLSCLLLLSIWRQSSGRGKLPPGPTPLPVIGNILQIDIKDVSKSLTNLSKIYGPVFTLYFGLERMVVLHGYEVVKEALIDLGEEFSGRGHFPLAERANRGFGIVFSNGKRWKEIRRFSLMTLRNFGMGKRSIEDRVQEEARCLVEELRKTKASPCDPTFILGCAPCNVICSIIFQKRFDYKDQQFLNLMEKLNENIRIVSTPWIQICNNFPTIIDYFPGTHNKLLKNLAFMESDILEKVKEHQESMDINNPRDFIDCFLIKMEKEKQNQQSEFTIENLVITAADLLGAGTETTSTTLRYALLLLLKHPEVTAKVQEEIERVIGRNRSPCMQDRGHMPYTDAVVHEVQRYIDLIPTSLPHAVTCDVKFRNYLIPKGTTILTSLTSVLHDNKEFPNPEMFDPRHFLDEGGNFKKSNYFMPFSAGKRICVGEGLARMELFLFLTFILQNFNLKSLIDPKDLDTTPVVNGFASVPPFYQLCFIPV

The target in this experiment is Cytochrome P450 2C19 (Homo sapiens) (UniProt P33261). Nature of the experiment: Cytochrome panel assay with activity outcomes. The settings on record: recombinant CYP, pro-luciferin dealkylation, luminescence, p450-cyp2c19; at 25.6 µM (top of the series). The method, then:
The P450 gene superfamily is involved in the metabolism and clearance of xenobiotics. This assay used various human CYP P450 isozymes to measure the dealkylation of various pro-luciferin substrates to luciferin. The luciferin is then measured by luminescence after the addition of a luciferase detection reagent. Pro-luciferin substrate concentration in the assay was equal to its KM for its CYP P450 isozyme. Inhibitors and some substrates limit the production of luciferin, and decrease measured luminescence.
NCGC Assay Protocol Summary:
1, Reagent, 2 uL, Isozyme and Pro-Luciferin
2, Library compounds, 23 nl, 40 uM to 0.24 nM dilution series
3, Controls, 23 nl, Isozyme specific inhibitor
4, Reagent, 2 uL, NADPH regeneration solution
5, Incubation time, 60 min, Isozyme specific temperature
6, Reagent, 4ul, Detection reagent
7, Incubation time, 20 min, Isozyme specific temperature
8, Detection, 1 sec, ViewLux luminescent read
The luciferase-based P450-GloTM Screening Systems were obtained from Promega (Madison, WI) for CYP 1A2 (V9770), CYP 2C9 (V9790), CYP2 C19 (V9880), CYP 2D6 (V9890), and CYP 3A4 Luciferin-PPXE (V9910) and were adapted for 1,536-well microplates and an automated protocol. […]
As for `CC(=O)[C@@H]1CC[C@H]2[C@H]3CC[C@H]4C[C@@H](O)CC[C@]4(C)[C@@H]3C(=O)C[C@@]12C`, the activity, negative = inhibition is inactive: -30.3%.
